# Data taken from the supplement of paper PMC11417369.
# This is one part of the list.
# System: PfSIP2 AP2 domain 1 (GST-tagged)
# Experiment: gcPBM binding intensity (ln(normalized median fluorescence intensity)); higher = stronger DNA binding
# In short: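 An Agilent 4 × 180k array carrying primer-extended double-stranded 36-bp intergenic genomic probes and negative controls received GST-tagged P. falciparum DNA-binding domains expressed in E. coli, about 25 μg on average, for 1 h. The binding buffer contained 1× PBS, 1% milk, 0.2 mg/ml BSA, 0.5% salmon testes DNA and 0.03% Triton X-100. Binding intensity is the top Masliner-normalised natural-log median intensity across replicate spots of either probe orientation, read after Alexa488 anti-GST antibody staining and a 488 nm scan.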
row,Sequence,gcPBM binding intensity (ln)
1,TTTTTTGAATTTAAAAGTACAGGCTTTTACCAAATA [XGTACX_site1356],6.93
2,AAAAAAAAAAAAAAAAGTACATACAACATTATGAAA [XGTACX_site207],7.73
3,ATAAATAAATAAATCTGTACATATGTATATGTATAT [XGTACX_site4537],7.05
4,AATTAAAAAAAAAAAAAAAAAAAAAAATGAAAAAAA [CACACA_negctrl_site1073],6.69
5,AAAAAAGAAAAAAAGTGTACAATATTTATTACATAT [XGTACX_site2277],6.9
6,ATAATCCTTGGACACACACACACACTAGTAAATAAA [CACACA_site4423],7.26
7,AACCCAAAATAATTATGTACATATTTTTAAATATAT [XGTACX_site6487],7.26
8,TTTGTGTATATAACAGTGCAATATTATAAATATAAA [GTGCAC_site9750],8.53
9,GCAAAGCACAAATATGCATGTAGATATAGAATAATG [TGCATGCA_site382],7.68
10,CATCCAAAAATATTATGTACTAAATTTGGATGTATT [XGTACX_site3954],6.8
11,TATAAAATTATGTGTACACAAATATAACTTTTCTTT [CACACA_site5554],6.94
12,TATTCATATTCCAAGTGTACACATAAATCCCTAATA [XGTACX_site4131],7.55
13,AAAATATTTCTTCTTTGTACTTATATATATTTAATT [XGTACX_site5446],7.01
14,TACTTACCTATAATAACACACAAGAAAAAAATAAAA [CACACA_site6616],7.26
15,AAATAATATCATAAATGTACATATATCATATTATTA [XGTACX_site5372],6.9
16,AAATTATAGAATCATTGTACTTTTTTTTTTTTTTTT [XGTACX_site1280],7.61
17,CTCATCCTTACATACACACACATATATTTATTTATA [CACACA_site6202],7.46
18,TATGCTTCAAAATTGTGTACATATATAATATATTAT [XGTACX_site6760],7.18
19,TTAATAATTATAACATGTACATACACTAAATTTTTT [XGTACX_site8953],7.31

row,Sequence,gcPBM binding intensity (ln)
1,CAAATATATATTTATTGTACATATTGTTTATATGGT [XGTACX_site5246],7.14
2,AAATATTTATATGTTACACACTGTTTATAATTTTCT [CACACA_site4868],6.75
3,CAATGTATTTAGAATACATGCATATTTTCATAATGT [TGCATGCA_site221],6.76
4,AATTATGCACAAATCACACATATAAAATAAAAAGTG [CACACA_site4474],7.87
5,AAATCCATATAGGATTGTACATATATTATATATATA [XGTACX_site8818],7.94
6,AATTCTTTACTATTCACACATATAAATATTCACTTT [CACACA_site4886],7.07
7,CAAAATGTTAAAGATACACACCTAACAAACACAAAA [CACACA_site4685],7.01
8,ACATATATATTTATATGTACATATATTTATATATAT [XGTACX_site7469],7.27
9,GTGGTATAAATTTTATGTACTTAATAACTCATTAAT [XGTACX_site5555],7.08
10,AAAAATATTTAAAATACACACATATCTATAATATAT [CACACA_site7032],6.95
11,AAAAAAAAAAAACACACACACACAAATACATACACA [CACACA_site706],7.19
12,ATATAGTTTCACATGTGTACATAAAAATACACTTGT [XGTACX_site3339],7.06
13,ACAAAAATGAGATGGTGTACGCACAAATAAATAATA [XGTACX_site5221],7.51
14,TTTAATTTATATAATGATATTAAGTTGGTTATTAGG [CACACA_negctrl_site329],6.76
15,GAAAATTCATAAAAATGTACTTATTATATTATTTAT [XGTACX_site2169],6.81
16,AAAGGTTTGCGTTGTGTGCACAAAATAAATATATAA,8.58
17,TTATGAATATTGATGTATAAAAAAATATATATGTTA [XGTACX_negctrl_site390],6.98
18,GATATATAACTTTTAACACACAAAAAAAAAAAAAAT [CACACA_site7653],7.05
19,TAAAATTATGTAATAACACACATATACAATACATAT [CACACA_site1236],6.93

row,Sequence,gcPBM binding intensity (ln)
1,TTTTTTATTTAAAGTAGTACTTTTTAGAAAACAAAA [XGTACX_site6759],6.88
2,ATTCTAAATATGTATATACACACTTTTAATATTCAT [CACACA_site4118],7.22
3,TTTATGAAACAGTGCACACATAAAAATAAATACATA [CACACA_site5631],11.2
4,TTATTTTAAATTAACACATGCATAATATATGTATAT [TGCATGCA_site597],6.91
5,AAAAAAATTTTAAAATGTACAAATTTTAATATATAT [XGTACX_site7628],6.91
6,TTTTCAAAAATATACACACACATAAATATATGTATA [CACACA_site777],7
7,AGGTTGAATATATATTTGTGATTATATTATTTTATT [CACACA_negctrl_site778],6.8
8,TATATATATATATAATGTACAAACTCCTTTATATAT [XGTACX_site4545],9.2
9,CCATGTCAAACATTTGCACACAAAAAAATAAAAATT [CACACA_site4546],7.37
10,TCATTCAAAAAAAATCAACACACAGTTACATAGCTC [CACACA_site8700],6.89
11,GTTTTTTTTATATATTGTACAAATAATATATTATAT [XGTACX_site29],7.67
12,TTTTAAAAAAAAAAAATAAATAAATAAGATATTATC [CACACA_negctrl_site1791],6.47
13,TTTTAAAACTACATTGGTACACAATAAAAAAAAAAA [XGTACX_site2793],7.13
14,AAAAAAAAAAAAAAAGCACACATATAAATATGAATA [CACACA_site8391],7.5
15,TCATATATATTATACACACACATATATAAATATATA [CACACA_site967],7.03
16,AACACCAAACTAAATGTACACACATACATAAATATA [CACACA_site8298],7.14
17,AATATAAACACAAACACACACATATATATATATATA [CACACA_site4307],9.52
18,TTATTTAAACAAATCACACACAAATATAAATACATA [CACACA_site5158],7.09
19,TTATGTTATATATACACACACAAAAGAAAAAAAAAA [CACACA_site2987],6.9
